Publication PMC4949998
No constants are given. Whether binding was seen depends on the method and setting. For some of these results: Binding seen in cells or lysates may run through a third protein. Some binding calls cover weakened binding; strength is not graded here. For some of these results: Where a sequence is shown, tags or fusion partners need not be part of it.

T1: MRE11-nYFP (Arabidopsis thaliana) (UniProt Q9XGM2)
T1 sequence: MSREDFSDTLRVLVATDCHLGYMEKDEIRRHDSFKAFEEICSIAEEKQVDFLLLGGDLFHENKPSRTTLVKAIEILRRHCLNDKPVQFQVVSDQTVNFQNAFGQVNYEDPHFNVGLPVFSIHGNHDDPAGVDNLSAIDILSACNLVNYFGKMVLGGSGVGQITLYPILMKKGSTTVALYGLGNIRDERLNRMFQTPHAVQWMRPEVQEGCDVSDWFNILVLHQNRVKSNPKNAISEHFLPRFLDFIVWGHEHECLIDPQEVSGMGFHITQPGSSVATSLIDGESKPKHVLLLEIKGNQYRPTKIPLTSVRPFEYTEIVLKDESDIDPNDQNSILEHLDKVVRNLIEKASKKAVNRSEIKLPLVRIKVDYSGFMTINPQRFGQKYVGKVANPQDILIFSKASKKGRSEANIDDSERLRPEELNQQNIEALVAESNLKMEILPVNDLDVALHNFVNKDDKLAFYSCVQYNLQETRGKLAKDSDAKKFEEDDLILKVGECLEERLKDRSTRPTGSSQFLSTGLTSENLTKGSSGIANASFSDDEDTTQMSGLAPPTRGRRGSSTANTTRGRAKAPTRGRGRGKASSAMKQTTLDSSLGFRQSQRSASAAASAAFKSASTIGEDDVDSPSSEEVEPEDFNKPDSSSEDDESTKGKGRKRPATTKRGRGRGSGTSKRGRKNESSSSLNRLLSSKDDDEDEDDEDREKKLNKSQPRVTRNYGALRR

T2: Arabidopsis MRE11, full-length, GAL4 DNA-binding domain fusion (two-hybrid bait) (Arabidopsis thaliana) (UniProt Q9XGM2)
T2 sequence: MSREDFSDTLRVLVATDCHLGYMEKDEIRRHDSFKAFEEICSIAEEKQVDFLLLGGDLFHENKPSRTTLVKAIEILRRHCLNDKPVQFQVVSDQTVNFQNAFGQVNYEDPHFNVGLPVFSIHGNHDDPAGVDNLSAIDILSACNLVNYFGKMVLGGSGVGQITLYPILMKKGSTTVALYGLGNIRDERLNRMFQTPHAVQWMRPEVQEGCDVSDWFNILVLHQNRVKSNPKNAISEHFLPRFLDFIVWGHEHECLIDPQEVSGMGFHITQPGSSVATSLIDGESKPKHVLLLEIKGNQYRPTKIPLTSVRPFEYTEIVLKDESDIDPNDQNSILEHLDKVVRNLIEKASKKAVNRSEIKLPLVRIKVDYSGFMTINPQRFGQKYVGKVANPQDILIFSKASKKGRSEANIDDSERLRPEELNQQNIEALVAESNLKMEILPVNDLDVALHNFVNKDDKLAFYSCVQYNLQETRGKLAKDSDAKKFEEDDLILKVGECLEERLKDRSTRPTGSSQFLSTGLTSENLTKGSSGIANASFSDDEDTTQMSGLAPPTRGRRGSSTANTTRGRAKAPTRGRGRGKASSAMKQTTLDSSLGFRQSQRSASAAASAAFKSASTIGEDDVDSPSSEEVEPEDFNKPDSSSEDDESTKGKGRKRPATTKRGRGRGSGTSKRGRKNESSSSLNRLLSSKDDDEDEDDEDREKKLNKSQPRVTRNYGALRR

T3: MRE11 deletion construct without the C-terminal domain (MRE11 up to residue 529) (Arabidopsis thaliana) (UniProt Q9XGM2)
T3 sequence: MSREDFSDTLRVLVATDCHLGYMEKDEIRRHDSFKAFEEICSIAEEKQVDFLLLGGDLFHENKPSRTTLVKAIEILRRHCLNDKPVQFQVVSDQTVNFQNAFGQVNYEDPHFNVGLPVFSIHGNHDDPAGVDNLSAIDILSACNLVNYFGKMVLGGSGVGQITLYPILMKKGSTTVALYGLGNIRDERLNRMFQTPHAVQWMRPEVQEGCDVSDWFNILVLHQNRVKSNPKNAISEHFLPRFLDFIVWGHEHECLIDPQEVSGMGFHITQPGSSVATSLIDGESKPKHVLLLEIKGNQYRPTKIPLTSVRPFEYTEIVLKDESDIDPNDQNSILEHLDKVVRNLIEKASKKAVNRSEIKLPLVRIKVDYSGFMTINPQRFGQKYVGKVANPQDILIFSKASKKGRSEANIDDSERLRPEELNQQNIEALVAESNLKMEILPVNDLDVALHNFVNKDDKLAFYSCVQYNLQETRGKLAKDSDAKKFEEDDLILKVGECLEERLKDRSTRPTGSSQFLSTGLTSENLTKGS


Legend:
[1] = molecular target: T1, MRE11-nYFP (Arabidopsis thaliana); test: split reporter; BiFC with halves of Venus YFP, transient expression in Arabidopsis leaf protoplasts, confocal fluorescence microscopy
[2] = molecular target: T2, Arabidopsis MRE11, full-length, GAL4 DNA-binding domain fusion (two-hybrid bait) (Arabidopsis thaliana); test: two-hybrid; direct test after plasmid isolation and re-transformation into the yeast reporter strain AH109; MRE11 full length and deletion constructs against the TAF1 C-terminal region
[3] = molecular target: T3, MRE11 deletion construct without the C-terminal domain (MRE11 up to residue 529) (Arabidopsis thaliana); test: as above
[4] = molecular target: T2, Arabidopsis MRE11, full-length, GAL4 DNA-binding domain fusion (two-hybrid bait) (Arabidopsis thaliana); test: two-hybrid; library screen: full-length MRE11 bait (GAL4 DNA-binding domain) against an Arabidopsis activation domain library; selection without tryptophan, leucine and histidine with 2.5 mM 3-amino-1,2,4-triazole, re-plated on media also lacking adenine

| Binder | binding [1] | binding [2] | binding [3] | binding [4] |
| --- | --- | --- | --- | --- |
| NBS1-cYFP (protein, UniProt Q0H8D7 1-542) MVWGLFPVDPLSGEDKYYIFSKGIYKVGRKGCDIIINKDKGVSRIHAELTFDATTVSTSRRNKSSSDTSSFVIRVKDCSKYGTFVKTDLGTKDKVHELSNKEKILQDGDVIAFGTGSAIYRLSLIPLVFYLCPSSETFKVDQPVQDAVSSIGARISPTLSEECTHVLLEPRMQVNEALINAILAKKTIILTNWVMLLAEKSICSEIPGYSQYRPSVMVEEALVDVLELNVREKCLEGFTFVLEPTDTYRFGCSFPSLLEVCGAETVTIEDISSMSQDSQFGEINRMICVIPKSAGDKFGRFKHLSLLSRVNEMDLVCAVFSGNLPSTSLIPPSVVISSSCSTDETVVADSEAEEEETTSSVHMIDATEKAETPEKPAAIVIEDSPVTILEETSNLNEFKSVNLLADTESRGHMDEKNSSDSVTIRRDRNDEAETGKSEIIYTQDLIVRDLRSTRKVQSTGGEGVVDFKRFRKGNVTCGNSFSSLIPFAKDPYKEYDSWDVTDFMKEEKKRKQMEAIAEDLFKTEKARKRGTAGSIRGFLSGS | binds |  |  |  |
| TAF1 C-terminal region isolated in the yeast two-hybrid screen (domain or fragment, UniProt Q8LRK9 1278-1919) LCRLLMQDEDQKKKKKKMKGVGEGMGSYPPPRPNIALQSGEPVRKANAMDKKPIAIQPDASFLVNESTIKDNRNVDSIIKTPKGKQVKENSNSLGQLKKVKILNENLKVFKEKKSARENFVCGACGQHGHMRTNKHCPRYRENTESQPEGIDMDKSAGKPSSSEPSGLPKLKPIKNSKAAPKSAMKTSVDEALKGDKLSSKTGGLPLKFRYGIPAGDLSDKPVSEAPGSSEQAVVSDIDTGIKSTSKISKLKISSKAKPKESKGESERRSHSLMPTFSRERGESESHKPSVSGQPLSSTERNQAASSRHTISIPRPSLSMDTDQAESRRPHLVIRPPTEREQPQKKLVIKRSKEMNDHDMSSLEESPRFESRKTKRMAELAGFQRQQSFRLSENSLERRPKEDRVWWEEEEISTGRHREVRARRDYDDMSVSEEPNEIAEIRRYEEVIRSEREEEERQKAKKKKKKKKLQPEIVEGYLEDYPPRKNDRRLSERGRNVRSRYVSDFERDGAEYAPQPKRRKKGEVGLANILERIVDTLRLKEEVSRLFLKPVSKKEAPDYLDIVENPMDLSTIRDKVRKIEYRNREQFRHDVWQIKYNAHLYNDGRNPGIPPLADQLLEICDYLLDDYEDQLKEAEKGIDPND |  | binds | binds | binds |

Other lines, results leading:

| binding [1] | binding [2] | binding [3] | binding [4] | Binder |
| --- | --- | --- | --- | --- |
| binds |  |  |  | TAF1(1755–1919)-cYFP (domain or fragment, UniProt Q8LRK9 1755-1919) LEDYPPRKNDRRLSERGRNVRSRYVSDFERDGAEYAPQPKRRKKGEVGLANILERIVDTLRLKEEVSRLFLKPVSKKEAPDYLDIVENPMDLSTIRDKVRKIEYRNREQFRHDVWQIKYNAHLYNDGRNPGIPPLADQLLEICDYLLDDYEDQLKEAEKGIDPND |
| binds |  |  |  | TAF1(1278–1919)-cYFP (domain or fragment, UniProt Q8LRK9 1278-1919) LCRLLMQDEDQKKKKKKMKGVGEGMGSYPPPRPNIALQSGEPVRKANAMDKKPIAIQPDASFLVNESTIKDNRNVDSIIKTPKGKQVKENSNSLGQLKKVKILNENLKVFKEKKSARENFVCGACGQHGHMRTNKHCPRYRENTESQPEGIDMDKSAGKPSSSEPSGLPKLKPIKNSKAAPKSAMKTSVDEALKGDKLSSKTGGLPLKFRYGIPAGDLSDKPVSEAPGSSEQAVVSDIDTGIKSTSKISKLKISSKAKPKESKGESERRSHSLMPTFSRERGESESHKPSVSGQPLSSTERNQAASSRHTISIPRPSLSMDTDQAESRRPHLVIRPPTEREQPQKKLVIKRSKEMNDHDMSSLEESPRFESRKTKRMAELAGFQRQQSFRLSENSLERRPKEDRVWWEEEEISTGRHREVRARRDYDDMSVSEEPNEIAEIRRYEEVIRSEREEEERQKAKKKKKKKKLQPEIVEGYLEDYPPRKNDRRLSERGRNVRSRYVSDFERDGAEYAPQPKRRKKGEVGLANILERIVDTLRLKEEVSRLFLKPVSKKEAPDYLDIVENPMDLSTIRDKVRKIEYRNREQFRHDVWQIKYNAHLYNDGRNPGIPPLADQLLEICDYLLDDYEDQLKEAEKGIDPND |
| no binding |  |  |  | TAF1(1246–1606)-cYFP (domain or fragment, UniProt Q8LRK9 1246-1606) KLDGVKGLKMRRRPSQVETDEEIEDEATEYAELCRLLMQDEDQKKKKKKMKGVGEGMGSYPPPRPNIALQSGEPVRKANAMDKKPIAIQPDASFLVNESTIKDNRNVDSIIKTPKGKQVKENSNSLGQLKKVKILNENLKVFKEKKSARENFVCGACGQHGHMRTNKHCPRYRENTESQPEGIDMDKSAGKPSSSEPSGLPKLKPIKNSKAAPKSAMKTSVDEALKGDKLSSKTGGLPLKFRYGIPAGDLSDKPVSEAPGSSEQAVVSDIDTGIKSTSKISKLKISSKAKPKESKGESERRSHSLMPTFSRERGESESHKPSVSGQPLSSTERNQAASSRHTISIPRPSLSMDTDQAESRR |
